Measured values: patent US20250064779A1, “COMPOSITIONS AND METHODS FOR THE TREATMENT OF DEPRESSION” (Janssen Pharmaceuticals, Inc., priority 2022, published 2025)

Experiments:
[1] = system: subjects with MDD who have had an inadequate response to SSRI/SNRI treatment; assay: CGI-S, Example 1; assay type: in vivo, human; settings: aticaprant 10 mg; 59 subjects analyzed
From the text: CGI-S is a scale that rates the severity of the subject's illness at the time of assessment, relative to the clinician's past experience with subjects who have the same diagnosis and improvement with treatment. CGI-S provides an overall clinician-determined summary measure of severity of subject's illness that considers all available information, including knowledge of subject's history, psychosocial circumstances, symptoms, behavior, and impact of symptoms on subject's ability to function. CGI-S evaluates severity of psychopathology on scale of 0 to 7. Subject is assessed on severity of mental illness at time of rating according to: 0=not assessed; 1=normal (not at all ill); 2=borderline mentally ill; 3=mildly ill; 4=moderately ill; 5=markedly ill; 6=severely ill; 7=among most extremely ill patients. […]

[2] = system: subjects with MDD who have had an inadequate response to SSRI/SNRI treatment; assay: HAM-A6 total score (anxiety), Example 1; assay type: in vivo, human; settings: Treatment Week 6
From the text: The secondary objectives are: • i. To evaluate the efficacy of aticaprant compared to placebo when administered as adjunctive treatment in subjects with MDD partially responsive to SSRI/SNRI treatment in terms of reduction of symptoms of depression, as assessed by the change from baseline on the MADRS in both responders and non-responders during the placebo lead-in period. • ii. To investigate the overall safety and tolerability of treatment with adjunctive aticaprant in subjects with MDD when used in combination with a SSRI or SNRI. • iii. To investigate the effect of aticaprant versus placebo on depression related anhedonia as assessed by the SHAPS. • iv. To investigate the effect of aticaprant on symptoms of depression using the Clinical Global Impression-Severity (CGI-S), the patient reported Symptoms of Major Depressive Disorder Scale (SMDDS) and the self-assessment of treatment experience (SATE). • v. To investigate the effect of aticaprant on symptoms of anxiety using the HAM-A and on core symptoms of anxiety using the HAM-A6 subscale. • vi. To assess the plasma PK of aticaprant in subjects with MDD and explore its relationship with efficacy and safety parameters. […]

Compound: Cc1cc(C)cc(C2CCCN2Cc2ccc(Oc3ccc(C(N)=O)cc3F)cc2)c1 (stereo not drawn) [aticaprant, 3-fluoro-4-4-2-(3,5-dimethylphenyl)pyrrolidin-1-yl-methylphenoxybenzamide]
- Change from Treatment Baseline in CGI-S Total Score, Arithmetic Mean (SD) [1]: −0.92 ± 1.039 Scores on a scale
- improvement in HAMA6 score vs. placebo [2]: greater improvement
- Change from Treatment Baseline in HAM-A6 Total Score, Arithmetic Mean (SD) ([2]; aticaprant 10 mg, 59 subjects analyzed): −2.73 ± 2.651 scores on a scale
